Screen size: about 310,000 compounds; about 14,000 (4.5%) showed an effect of 50% or more. The effect is printed as a negative number. Some of the results follow.
Biological target: human ether-à-go-go-related gene (hERG) potassium channel (human, UniProt Q12809)
Assay: primary screen, population patch clamp on CHO cells stably expressing hERG
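Further: peak tail current of the secondary pulse compared with the same well before compound.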

Sequence of human ether-à-go-go-related gene (hERG) potassium channel (Q12809 whole entry, looked up): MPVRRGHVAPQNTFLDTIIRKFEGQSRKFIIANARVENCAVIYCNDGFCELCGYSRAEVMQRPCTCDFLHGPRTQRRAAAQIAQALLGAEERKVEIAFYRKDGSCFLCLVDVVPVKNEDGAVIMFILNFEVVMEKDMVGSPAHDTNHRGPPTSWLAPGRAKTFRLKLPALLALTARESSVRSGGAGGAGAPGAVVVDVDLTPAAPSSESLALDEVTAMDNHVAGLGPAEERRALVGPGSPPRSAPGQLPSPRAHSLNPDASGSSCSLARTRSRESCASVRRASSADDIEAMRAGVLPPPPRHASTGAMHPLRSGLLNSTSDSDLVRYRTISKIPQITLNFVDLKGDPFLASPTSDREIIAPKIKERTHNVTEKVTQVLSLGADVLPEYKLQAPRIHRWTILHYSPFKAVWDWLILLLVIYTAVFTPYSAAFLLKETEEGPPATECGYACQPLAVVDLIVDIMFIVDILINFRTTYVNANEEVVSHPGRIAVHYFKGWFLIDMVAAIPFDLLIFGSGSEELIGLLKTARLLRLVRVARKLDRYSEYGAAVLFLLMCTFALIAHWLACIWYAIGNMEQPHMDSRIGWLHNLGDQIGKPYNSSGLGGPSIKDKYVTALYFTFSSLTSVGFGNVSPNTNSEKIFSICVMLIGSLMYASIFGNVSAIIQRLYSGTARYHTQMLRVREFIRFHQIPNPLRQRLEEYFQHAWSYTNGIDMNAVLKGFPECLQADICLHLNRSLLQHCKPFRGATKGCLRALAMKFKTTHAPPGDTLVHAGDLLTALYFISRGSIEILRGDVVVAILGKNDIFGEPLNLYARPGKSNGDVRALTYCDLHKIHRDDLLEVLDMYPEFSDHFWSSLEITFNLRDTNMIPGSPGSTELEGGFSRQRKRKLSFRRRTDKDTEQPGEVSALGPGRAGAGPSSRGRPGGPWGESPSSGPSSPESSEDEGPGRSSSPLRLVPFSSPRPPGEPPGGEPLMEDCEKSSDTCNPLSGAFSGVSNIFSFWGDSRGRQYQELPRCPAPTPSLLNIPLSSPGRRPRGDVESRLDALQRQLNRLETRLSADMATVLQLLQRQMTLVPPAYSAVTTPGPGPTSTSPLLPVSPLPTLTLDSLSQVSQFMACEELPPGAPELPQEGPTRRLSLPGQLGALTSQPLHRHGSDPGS

Row | SMILES | hERG current change (%, negative = inhibition) at 10uM [%]
1 | Cc1cccc(N2CC(C(=O)Nc3nnc(SCC(=O)NCC4CCCO4)s3)CC2=O)c1 (stereo not drawn) | 7.97
2 | COc1cccc(C2=NOC(C(=O)Nc3cccnc3Cl)C2)c1 (stereo not drawn) | 2.88
3 | CCc1ccc(NC(=O)CN2C(=O)COc3ccc(S(=O)(=O)N4CCCC4)cc32)cc1 | 15.3
4 | CC1(C)C(c2cccs2)=[N+]([O-])C2(CCCCC2=O)N1O (stereo not drawn) | 21.1
5 | Cc1cccc(CS(=O)(=O)Cc2ccc(C(=O)NC3CCCCC3)o2)c1 | -7
6 | Cc1cc(C)nc(NC2=NCC(=O)N2c2cccc(Cl)c2)n1 | -13.7
7 | Cn1c(SCC(=O)Nc2ccc3cn[nH]c3c2)nnc1-c1cnccn1 | -18.3
8 | O=C(O)c1cccc(Cn2c(Cl)c(/C=N/NC(=O)c3ccccc3Cl)sc2=O)c1 | 14.5
9 | Cc1ccc2cc(CN(Cc3ccccc3)Cc3nnnn3C3CCCC3)c(=O)[nH]c2c1 | -28.3
10 | FC(F)Sc1nc2ccccc2[nH]1 | 12
11 | CCc1ccc(NC(=O)CC2C(=O)N(c3cccc(C)c3)C(=O)N2C2CC2)cc1 (stereo not drawn) | -9.51
12 | CCCCn1c(SCC(=O)NC2CCS(=O)(=O)C2)nc2ccccc2c1=O (stereo not drawn) | -24.2
13 | O=C(CONS(=O)(=O)c1ccc(Cl)cc1)NCCNc1ncc(C(F)(F)F)cc1Cl | 25.9
14 | NNC(=O)CP(=O)(c1ccccc1)c1ccccc1 | 6.79
15 | COc1ccc(N(Cc2ccc(N(C)C)cc2)C(=O)c2ccc(S(C)(=O)=O)cc2)cc1 | 13.9
16 | COc1ccc(C(=O)/C=C/Nc2ccc(NC(C)=O)cc2)cc1OC | -12.6
17 | CCOC(=O)c1c(C)n(CC(O)CN(CC)CC)c2cc(Br)c(OC)cc12.Cl (stereo not drawn) | -26.9
18 | CC(C)C[C@@H](COc1ccccc1)N1CCN(Cc2ccccc2)CCC1=O | -35.4
19 | COc1ccc(Nc2nc(NCCCN3CCOCC3)nc(N)c2[N+](=O)[O-])cc1 | -22

Row | SMILES | hERG current change (%, negative = inhibition) at 10uM [%]
20 | O=C(CSc1ccc(C(F)(F)F)cc1[N+](=O)[O-])Nc1ccccc1 | 2.76
21 | Cc1cc([N+](=O)[O-])nn1CC(=O)Nc1cnc2ccccc2c1 | -81.1
22 | O=C(CSc1nc(=O)n2ccccc2n1)N1CCN(c2ccccc2)CC1 | -27.7
23 | Cc1ccc(Nc2nc(N)c([N+](=O)[O-])c(NCc3ccco3)n2)cc1 | -5.84
24 | O=c1c2c3c(sc2nc2sc(CN4CCCCC4)cn12)CCCC3 | 9.98
25 | O=C(NCc1ccccn1)C1CC(c2ccc(F)cc2)=NO1 (stereo not drawn) | 0.609
26 | COc1ccccc1C(=O)NC(=O)COC(=O)Cn1cnc2c1c(=O)n(C)c(=O)n2C | 3.54
27 | COc1ccc(-c2nn(C)c(=O)c3ccccc23)cc1NC(=O)COc1ccccc1 | 1.5
28 | COCCNC(=S)NC1CC2CCCC(C1)N2Cc1cccs1 (stereo not drawn) | -26.7
29 | CC(C1CC1)N(Cc1ccccc1)C(=S)Nc1ccccc1 (stereo not drawn) | -27.8
30 | O=C(Nc1ccccc1F)Nc1ccccc1F | 3.37
31 | Cc1cc(C)n(-c2ccc(C(=O)Nc3ccc4c(c3)OCO4)cc2)n1 | 3.19
32 | O=[N+]([O-])c1cc(C(F)(F)F)ccc1N1CCCC(O)C1 (stereo not drawn) | -12.1
33 | Cc1cc(NC(=O)C2CC(=O)OC2c2ccccc2)no1 (stereo not drawn) | 0.702
34 | CN(C)CCNS(=O)(=O)c1ccc(N2CCc3ccccc32)c([N+](=O)[O-])c1 | -40.4
35 | Cc1ccsc1C(=O)NNC(=O)C1CCCCC1C(=O)O (stereo not drawn) | 1.79
36 | Cn1cc(-c2cccc(C(F)(F)F)c2)cc(C#N)c1=O | -5.93
37 | CCOC(=O)c1cnc2ccc(Br)cc2c1NCCO | -9.88
38 | COc1ccc(C(=O)c2ccc(OC)c(OC)c2)cc1OC | 14.1

Row | SMILES | hERG current change (%, negative = inhibition) at 10uM [%]
39 | CCCC(=O)Nc1ccc(C(=O)NNC(=O)c2ccccc2Br)cc1 | 6.14
40 | CCOC(=O)C1=C(C)N=c2s/c(=C\c3cc(OC)c(OC)c(OC)c3)c(=O)n2C1/C=C/c1ccccc1 (stereo not drawn) | -15.5
41 | Clc1ccc(Nc2cc(-c3ccccc3)nc3ncnn23)cc1 | 28
42 | CCCCCn1c2c(c(=N)c3ccccc31)CCC2.I | -71.2
43 | CCOC(=O)c1sc(=NC(=O)CCS(=O)(=O)c2ccccc2)n(C)c1C | 8.29
44 | O=C(NC(C(=O)N/N=C/c1cccc2ccccc12)c1n[nH]c(=O)c2ccccc12)c1ccccc1 (stereo not drawn) | 7.55
45 | CCN(Cc1ccncc1)Cc1nc(Cc2ccccc2Cl)no1 | -34.8
46 | COc1cc2nc(CN(C)Cc3ccc(OC)c(OC)c3OC)[nH]c(=O)c2cc1OC | 19.7
47 | CC(=O)c1cccc(OCC(O)CNCC2CCCCC2)c1 (stereo not drawn) | 10.3
48 | CC(=O)c1c(C(C)=O)c(C)n(-c2ccc(N)c(C)c2)c1C | 18.1
49 | CS(=O)(=O)c1ccccc1COC(=O)Nc1ccc(Cl)cc1 | 0.00428
50 | COc1ccccc1C(=O)N/N=C/c1cnc2ccccc2n1 | 4.1
51 | CCCCCCCCCCC(=O)Nc1cccnc1 | 11.9
52 | COc1ccc(OCC(=O)Nc2ccc3oc(=O)ccc3c2)cc1 | -2.22
53 | O=C(NC(=S)NCC1CCCO1)c1ccccc1Br (stereo not drawn) | 4.66
54 | Cc1ccccc1NC(=O)C(Cc1ccccc1)n1cccc1 (stereo not drawn) | -0.159
55 | Cc1nc(N2CCC(C)CC2)c2c(C)c(C(=O)Nc3ccccc3C(F)(F)F)sc2n1 | -2.14
56 | CCOc1ccc(Nc2oc(Cc3ccccc3)nc2C#N)cc1 | -1.96
57 | Oc1c(Br)c(Br)c(Br)c(Br)c1Br | 27.7

From publication PMC4336329 (PLoS ONE, 2015)
